Patent US12692294B2, “Engineered NRG-1 variants with improved selectivity toward ErbB4 but not against ErbB3” (Amgen Inc., priority 2021, dated 2026)
Where two headings read alike, the source gives them in different places.

B1: huNRG1(S177-F229)(NRGE1C)((G4E)2)::G4::huFcSEFL2 (Pb): Fc fusion of NRG1 variant SEQ ID NO:117; ErbB4 selective agonist tested in rat MI model (Example 2) (protein)
chain: SHLVKCGEKHKSFCVNGGECFMIEGPSNPSRYLCKCPNEFTGDRCQEDFMASFGGGGEGGGGEGGGG[letters of human IgG1 Fc with R292C N297G V302C (EU numbers) not shown]
modifications: huNRG1(S177-F229)(NRGE1C) ((G4E)2)::G4::huFcSEFL2 (Pb)
B2: :huFcSEFL2(desK):G4SG4:huNRG1(S177-Q237)(NRGEIC): N-terminal Fc fusion of NRG1 variant SEQ ID NO:124 (protein)
chain: [letters of human IgG1 Fc with R292C N297G V302C (EU numbers) not shown]GGGGSGGGGSHLVKCGEKHKSFCVNGGECFMIEGPSNPSRYLCKCPNEFTGDRCQEDFMASFYKAEELYQ[letters of human IgG1 Fc with R292C N297G V302C (EU numbers) not shown]GGGGSGGGGSHLVKCGEKHKSFCVNGGECFMIEGPSNPSRYLCKCPNEFTGDRCQEDFMASFYKAEELYQ
modifications: huFcSEFL2(desK)G4SG4huNRG1(S177-Q237) (NRGE1C)
B3: :huFcSEFL2(desK):G4SG4:huNRG1(S177-Q237)(NRGEID): N-terminal Fc fusion of NRG1 variant SEQ ID NO:131 (protein)
chain: [letters of human IgG1 Fc with R292C N297G V302C (EU numbers) not shown]GGGGSGGGGSHLVKCGESHKSFCVNGGECYMVEGSSIPSRYLCKCPNEFTGDRCQEDFMASFYKAEELYQ[letters of human IgG1 Fc with R292C N297G V302C (EU numbers) not shown]GGGGSGGGGSHLVKCGESHKSFCVNGGECYMVEGSSIPSRYLCKCPNEFTGDRCQEDFMASFYKAEELYQ
modifications: huFcSEFL2(desK)G4SG4huNRG1(S177-Q237) (NRGE1D)

Tests used:
ErbB4 = molecular target: T1, ErbB4 (Rattus norvegicus, UniProt Q62956); assay: In vitro phosphorylation of Akt in neonatal rat cardiomyocytes; assay type: cell-based; conditions: for EC50: Akt (Serine 473) phosphorylation, neonatal rat cardiomyocytes, 15 minutes treatment, read-out: Cardiomyocyte (CM) (ErbB4) Avg EC50; for Selectivity SC/CM: ratio of EC50s Schwann cells/cardiomyocytes; for CM % Agonism AVG: top value of the Akt phosphorylation data points in cardiomyocytes, wild-type control 100
T1 construct: forming the ErbB2/ErbB4 complex in cardiomyocytes and the ErbB2/ErbB3 complex in Schwann cells; endogenous in cells; host or cells: primary neonatal rat cardiomyocytes (Sprague Dawley pups, 0 to 4 days old)
In short: (§1)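 Neonatal Sprague Dawley rat cardiomyocytes (ErbB2/ErbB4) and rat Schwann cells (ErbB2/ErbB3), serum-starved 16 h, were exposed 15 min to neuregulin variant titrations. Ser473 phospho- and total Akt measured by MSD electrochemiluminescence; percent phosphorylation fitted by 4-parameter curve for EC50, top value giving CM % agonism.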

[1] = tested on: Surgically induced myocardial infarction (MI) Sprague Dawley (SD) rats; assay: ErbB4 selective agonist efficacy in rat myocardial infarction (MI) model (Example 2, SC dosing); assay type: in vivo
Procedure: An ErbB4 selective agonist (huNRG1(S177-F229)(NRGE1C)((G4E)2)::G4:: huFcSEFL2 (Pb)) was tested in a rat MI model to determine whether a benefit could be seen in improving cardiac function.
14 days before MI surgery, rats were subjected to echocardiography to assess the cardiac function by ejection fraction (EF %). Noninvasive parasternal long axis B mode cine loops were acquired using Vevo 2100 system (VisualSonics Inc., Toronto, Canada). EF was calculated using the manufacturer's recommended method. Rats were randomized into three groups based on the baseline ejection fraction numbers: 1. Vehicle; 2. ErbB4 agonist 10 μg/kg; 3. ErbB4 agonist 20 μg/kg. After randomization on week 2, 16 rats were dosed with a vehicle or 10 μg/kg or 20 μg/kg, ErbB4 agonist, subcutaneously (SC).
Anesthesia exposure is known to influence cardiac function so isoflurane was maintained at 2.5% during echocardiography to minimize its influence on cardiac function. Isoflurane exposure duration per animal was <10 min during echocardiography. Animals were closely monitored during the study.

ErbB3 = molecular target: T2, ErbB3 (Rattus norvegicus, UniProt Q62799); assay: In vitro phosphorylation of Akt in rat Schwann cells; assay type: cell-based; conditions: Akt (Serine 473) phosphorylation, 15 minutes treatment
T2 construct: forming the ErbB2/ErbB4 complex in cardiomyocytes and the ErbB2/ErbB3 complex in Schwann cells; endogenous in cells; host or cells: rat Schwann cells
In short: as §1

[2] = GGT -> GGC silent mutation before terminal lys

T2 sequence (Q62799 20-1339): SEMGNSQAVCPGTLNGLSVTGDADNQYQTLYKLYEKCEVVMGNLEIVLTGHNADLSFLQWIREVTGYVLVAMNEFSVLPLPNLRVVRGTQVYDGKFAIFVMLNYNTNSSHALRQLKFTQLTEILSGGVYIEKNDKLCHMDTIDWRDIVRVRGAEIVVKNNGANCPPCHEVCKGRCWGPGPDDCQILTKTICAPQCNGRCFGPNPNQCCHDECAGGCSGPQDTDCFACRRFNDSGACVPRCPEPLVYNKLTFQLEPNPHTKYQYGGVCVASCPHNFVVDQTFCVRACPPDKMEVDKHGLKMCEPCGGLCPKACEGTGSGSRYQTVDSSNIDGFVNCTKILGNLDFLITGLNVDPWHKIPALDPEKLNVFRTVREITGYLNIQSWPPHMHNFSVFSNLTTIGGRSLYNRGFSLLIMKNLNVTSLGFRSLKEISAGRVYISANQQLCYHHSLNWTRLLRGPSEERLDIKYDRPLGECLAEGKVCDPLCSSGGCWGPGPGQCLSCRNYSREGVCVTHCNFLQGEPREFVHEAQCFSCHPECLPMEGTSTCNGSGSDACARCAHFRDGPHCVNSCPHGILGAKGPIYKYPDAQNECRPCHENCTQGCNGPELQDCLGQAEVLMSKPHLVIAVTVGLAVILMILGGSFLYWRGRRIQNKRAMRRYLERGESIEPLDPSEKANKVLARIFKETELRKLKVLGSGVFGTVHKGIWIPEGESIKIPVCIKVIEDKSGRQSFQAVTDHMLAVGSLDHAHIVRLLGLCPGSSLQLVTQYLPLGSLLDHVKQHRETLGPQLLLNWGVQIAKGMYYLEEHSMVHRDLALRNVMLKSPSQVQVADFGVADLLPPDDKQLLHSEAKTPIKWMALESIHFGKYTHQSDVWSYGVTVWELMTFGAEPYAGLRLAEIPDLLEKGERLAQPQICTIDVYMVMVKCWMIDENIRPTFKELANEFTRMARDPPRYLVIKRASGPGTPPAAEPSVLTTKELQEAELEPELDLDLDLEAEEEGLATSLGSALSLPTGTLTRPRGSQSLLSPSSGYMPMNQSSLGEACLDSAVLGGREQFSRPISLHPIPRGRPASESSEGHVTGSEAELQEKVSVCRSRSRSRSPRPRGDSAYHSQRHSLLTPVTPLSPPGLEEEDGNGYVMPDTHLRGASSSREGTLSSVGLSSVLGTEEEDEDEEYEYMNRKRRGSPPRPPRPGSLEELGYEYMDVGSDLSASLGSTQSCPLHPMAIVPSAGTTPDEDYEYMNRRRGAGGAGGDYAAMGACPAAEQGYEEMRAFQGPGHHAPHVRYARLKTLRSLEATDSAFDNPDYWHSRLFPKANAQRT
T2 sequence (P06494 23-1257 partner): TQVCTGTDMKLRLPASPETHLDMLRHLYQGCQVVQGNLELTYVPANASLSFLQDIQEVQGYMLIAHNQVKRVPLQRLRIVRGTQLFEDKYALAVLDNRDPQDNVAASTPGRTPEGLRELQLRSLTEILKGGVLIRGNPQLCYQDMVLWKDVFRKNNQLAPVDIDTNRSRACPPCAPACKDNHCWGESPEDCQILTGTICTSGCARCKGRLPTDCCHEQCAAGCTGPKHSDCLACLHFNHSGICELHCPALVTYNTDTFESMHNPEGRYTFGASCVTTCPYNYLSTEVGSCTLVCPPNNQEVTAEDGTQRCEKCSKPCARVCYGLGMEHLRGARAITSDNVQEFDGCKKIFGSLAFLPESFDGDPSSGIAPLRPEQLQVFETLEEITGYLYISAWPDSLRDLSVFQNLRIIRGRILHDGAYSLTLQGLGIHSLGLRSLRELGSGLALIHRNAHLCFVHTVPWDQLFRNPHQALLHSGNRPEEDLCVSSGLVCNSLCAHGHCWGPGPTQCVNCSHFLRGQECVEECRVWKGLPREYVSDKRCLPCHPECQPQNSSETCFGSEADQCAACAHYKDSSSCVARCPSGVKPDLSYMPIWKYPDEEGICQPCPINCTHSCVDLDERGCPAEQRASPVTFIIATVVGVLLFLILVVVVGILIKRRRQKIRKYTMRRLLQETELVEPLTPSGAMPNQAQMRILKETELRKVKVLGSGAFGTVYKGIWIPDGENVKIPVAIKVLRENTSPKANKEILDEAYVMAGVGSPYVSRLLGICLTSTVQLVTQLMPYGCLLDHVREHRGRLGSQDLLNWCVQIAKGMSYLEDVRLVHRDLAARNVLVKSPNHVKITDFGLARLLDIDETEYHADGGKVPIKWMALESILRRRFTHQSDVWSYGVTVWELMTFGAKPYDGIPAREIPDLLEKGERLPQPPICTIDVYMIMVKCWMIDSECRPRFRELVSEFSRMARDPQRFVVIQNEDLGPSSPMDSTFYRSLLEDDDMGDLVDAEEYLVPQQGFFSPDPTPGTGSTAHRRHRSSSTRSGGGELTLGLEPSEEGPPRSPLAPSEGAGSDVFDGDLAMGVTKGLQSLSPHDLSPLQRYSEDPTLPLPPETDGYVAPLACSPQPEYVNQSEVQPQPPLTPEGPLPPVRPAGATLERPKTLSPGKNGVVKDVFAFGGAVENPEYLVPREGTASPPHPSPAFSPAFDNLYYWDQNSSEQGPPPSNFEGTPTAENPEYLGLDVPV
T1 sequence (Q62956 26-1308): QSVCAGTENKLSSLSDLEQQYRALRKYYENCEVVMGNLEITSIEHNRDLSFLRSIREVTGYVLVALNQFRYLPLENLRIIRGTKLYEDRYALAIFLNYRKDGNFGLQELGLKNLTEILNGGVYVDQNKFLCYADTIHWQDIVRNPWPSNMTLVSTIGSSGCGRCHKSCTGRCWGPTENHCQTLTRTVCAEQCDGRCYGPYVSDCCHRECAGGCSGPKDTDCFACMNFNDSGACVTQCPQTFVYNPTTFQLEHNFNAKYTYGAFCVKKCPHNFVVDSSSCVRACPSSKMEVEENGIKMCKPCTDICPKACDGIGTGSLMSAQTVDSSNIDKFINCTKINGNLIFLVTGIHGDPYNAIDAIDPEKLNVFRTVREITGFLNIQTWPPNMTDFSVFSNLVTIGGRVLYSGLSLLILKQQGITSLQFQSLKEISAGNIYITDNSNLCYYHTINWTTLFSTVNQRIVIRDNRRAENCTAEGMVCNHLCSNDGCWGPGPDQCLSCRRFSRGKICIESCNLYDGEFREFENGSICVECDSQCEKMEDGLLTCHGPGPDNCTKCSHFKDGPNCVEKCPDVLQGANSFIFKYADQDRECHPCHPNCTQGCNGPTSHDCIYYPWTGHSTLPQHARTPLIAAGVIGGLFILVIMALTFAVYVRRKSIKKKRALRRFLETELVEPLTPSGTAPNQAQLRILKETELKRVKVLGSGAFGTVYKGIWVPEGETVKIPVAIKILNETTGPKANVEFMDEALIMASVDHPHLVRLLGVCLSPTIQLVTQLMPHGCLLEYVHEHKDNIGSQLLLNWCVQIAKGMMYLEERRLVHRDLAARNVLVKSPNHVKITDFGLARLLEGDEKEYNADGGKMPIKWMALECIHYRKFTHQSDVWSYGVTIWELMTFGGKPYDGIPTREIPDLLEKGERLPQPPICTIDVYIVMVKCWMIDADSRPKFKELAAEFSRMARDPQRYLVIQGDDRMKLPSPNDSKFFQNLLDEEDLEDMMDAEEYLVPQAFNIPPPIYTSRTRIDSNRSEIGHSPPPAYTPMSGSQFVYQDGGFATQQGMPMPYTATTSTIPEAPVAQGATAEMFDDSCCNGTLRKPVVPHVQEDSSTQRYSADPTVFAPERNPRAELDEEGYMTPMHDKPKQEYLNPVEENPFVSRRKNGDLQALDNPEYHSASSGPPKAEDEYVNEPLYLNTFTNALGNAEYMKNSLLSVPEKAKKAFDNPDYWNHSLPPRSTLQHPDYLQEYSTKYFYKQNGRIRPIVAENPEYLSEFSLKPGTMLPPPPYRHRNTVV
T1 sequence (P06494 23-1257 partner): as the sequence (P06494 23-1257 partner) above

Molecule	EC50 (ErbB4; [2]) [nM]	EC50 (ErbB4) [nM]	Selectivity SC/CM (ErbB4)	CM % Agonism AVG (ErbB4) [%]	CM % Agonism AVG (ErbB4; [2]) [%]	Terminal serum exposure ([1]; 10 or 20 μg/kg SC, treated groups compared to vehicle group (FIG. 1A))	Plasma exposure levels, 20 μg/kg vs 10 μg/kg ([1]; SC)	Adverse events (mortality/morbidity) ([1]; after treatment with 10 or 20 μg/kg SC)	Cardiac function (ejection fraction) ([1]; one week after SC dosing of 10 or 20 μg/kg, compared to vehicle group (FIG. 1B))	Schwann cells (SC) (ErbB3) Avg EC50 (M) (ErbB3)	EC50 (ErbB3; read-out: Schwann cells (SC) (ErbB3) Avg EC50) [nM]
B1	0.073	0.36	>10000	81.9	88.7	significantly higher	markedly higher in the 20 μg/kg group than in the 10 μg/kg group	No adverse events (mortality/morbidity)	improved cardiac function	inactive	> 10000
B2		0.11	>10000	84.9						inactive	
B3		0.1	>10000	90.5						inactive	
